The results in this text go back to the supplement of paper PMC9446081.

Hit rate of the full screen: of about 39,000 compounds, about 220 (0.56%) showed activity. Some of the results follow.
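Note: static incubation at 37 °C against the wild-type strain, values averaged over two biological replicates.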

In this assay the test system is Escherichia coli K-12 BW25113. The assay is described as follows: relative growth (OD600 normalised to plate interquartile mean) (fraction); higher = less growth inhibition, active = 0.2 or less. Particulars: 50 µM; LB; incubation time: overnight (16-24 h).
For `COc1ccc(CN(CCN(C)C)c2ccccn2)cc1.O=C(O)C=CC(=O)O`, the relative growth was inactive: 1.09.

With `C[C@@H]1CN([C@H](C)CO)C(=O)c2cccc(NS(=O)(=O)c3cn(C)cn3)c2O[C@H]1CN(C)CC1CCCCC1`, the relative growth is inactive: 0.983.

For `Cc1noc(C)c1S(=O)(=O)Nc1ccc2c(c1)CC(=O)N([C@H](C)CO)C[C@@H](C)[C@H](CN(C)C(=O)Nc1ccc3c(c1)OCO3)O2`, the relative growth is inactive: 0.989.

For the molecule `C[C@@H]1CN([C@@H](C)CO)C(=O)c2cc(NC(=O)Cn3cnnn3)ccc2O[C@H]1CN(C)Cc1ccc(C(=O)O)cc1`, the relative growth was inactive: 1.05.

For the molecule `C[C@@H]1CN([C@H](C)CO)C(=O)Cc2cc(NC(=O)NC3CCCCC3)ccc2O[C@H]1CN(C)Cc1ccc(-c2ccccc2)cc1`, the relative growth was inactive: 1.04.

For `O=C(C[C@H]1C[C@@H]2c3cc(NS(=O)(=O)c4ccc(F)cc4)ccc3O[C@@H]2[C@H](CO)O1)N1CCCCC1`, the relative growth is inactive: 0.998.

For the molecule `C[C@@H](OCc1ccccc1)[C@H]1NC(=O)[C@@]23C(=O)N[C@@H](Cc4ccccc4)[C@H]2[C@H](C)[C@@]2(C)O[C@H]2[C@@H]3/C=C/C/C=C\CNC(=O)CNC1=O`, the relative growth is inactive: 1.

On to `O=c1[nH]ncn1-c1ccccc1`, for which the relative growth was inactive: 0.969.

For `C[N+](C)(C)[C@@H]1[C@H]2OC[C@H](O)[C@H]2O[C@@H]1O`, the relative growth is inactive: 1.01.

As to `Cc1noc(C)c1S(=O)(=O)Nc1ccc2c(c1)C(=O)N([C@@H](C)CO)C[C@@H](C)[C@H](CN(C)C(=O)NC1CCCCC1)O2`, the relative growth is inactive: 1.01.

Turning to `COc1ccc(NC(=O)N(C)C[C@@H]2OCCCC[C@@H](C)Oc3ccc(NC(=O)Nc4cccc5ccccc45)cc3C(=O)N([C@@H](C)CO)C[C@@H]2C)cc1`, the relative growth was inactive: 1.04.

Consider `C[C@@H]1CCCCO[C@H](CN(C)C(=O)Nc2ccc(F)cc2)[C@H](C)CN([C@H](C)CO)C(=O)c2cc(NC(=O)Cc3ccccc3)ccc2O1`, for which the relative growth is inactive: 0.995.

Consider `O=C1CCC(c2ccc(O)cc2)CC1`, for which the relative growth is inactive: 0.993.

Regarding `O=C(C[C@@H]1C=C[C@H](NC(=O)C2CCC2)[C@H](CO)O1)NCCCN1CCOCC1`, the relative growth was inactive: 1.

With `C[C@H]1CCCCO[C@H](CN(C)C(=O)Nc2ccc(C(F)(F)F)cc2)[C@@H](C)CN([C@@H](C)CO)C(=O)c2cc(NC(=O)c3ccncc3)ccc2O1`, the relative growth was inactive: 0.915.

Take `C[C@@H]1CCCCO[C@@H](CN(C)Cc2ccc(C(F)(F)F)cc2)[C@H](C)CN([C@@H](C)CO)C(=O)c2cc(NS(=O)(=O)c3cccs3)ccc2O1`: the relative growth was inactive: 1.

As to `Cc1csc2sc(/C=N/Cc3cccs3)c(C)c12`, the relative growth is inactive: 1.01.

Turning to `COCCNC(=O)C[C@@H]1C[C@@H]2c3cc(NC(=O)Nc4ccc(C(F)(F)F)cc4)ccc3O[C@@H]2[C@H](CO)O1`, the relative growth is inactive: 1.01.

For the molecule `C[C@@H]1CN([C@@H](C)CO)C(=O)c2cc(NC(=O)Nc3ccc(C(F)(F)F)cc3)ccc2O[C@@H]1CN(C)S(C)(=O)=O`, the relative growth is inactive: 0.942.

`C[C@H]1CCCCO[C@H](CN(C)Cc2ccc(Cl)c(Cl)c2)[C@@H](C)CN([C@@H](C)CO)C(=O)c2cc(N(C)C)ccc2O1`: the relative growth was inactive: 0.969.

Consider `N[C@@H](CSCCCO)C(=O)O`, for which the relative growth is inactive: 1.01.

For the molecule `COc1ccc(S(=O)(=O)Nc2ccc3c(c2)C(=O)N([C@@H](C)CO)C[C@H](C)[C@@H](CN(C)C(=O)Nc2ccc(C(F)(F)F)cc2)OCCCC[C@@H](C)O3)cc1`, the relative growth is inactive: 1.01.

For `C[C@@H]1CN([C@@H](C)CO)C(=O)c2cc(NC(=O)c3ccncc3)ccc2O[C@@H](C)CCCCO[C@H]1CN(C)C(=O)Nc1ccc2c(c1)OCO2`, the relative growth is inactive: 0.994.

Take `Cc1noc(C)c1S(=O)(=O)Nc1ccc2c(c1)CC(=O)N([C@@H](C)CO)C[C@@H](C)[C@@H](CN(C)S(=O)(=O)c1cn(C)cn1)O2`: the relative growth was inactive: 0.996.

Consider `C[C@H](CO)N1C[C@H](C)[C@@H](CN(C)C(=O)Nc2ccc3c(c2)OCO3)Oc2ccc(NC(=O)c3ccncc3)cc2C1=O`, for which the relative growth was inactive: 0.977.

Regarding `C[C@@H]1CN([C@H](C)CO)C(=O)c2cc(Br)cnc2O[C@@H]1CN(C)C(=O)Nc1ccc(F)cc1`, the relative growth was inactive: 1.04.

In the case of `C[C@@H]1CCCCO[C@H](CN(C)Cc2ccncc2)[C@H](C)CN([C@H](C)CO)C(=O)c2cc(NC(=O)Cc3ccccc3)ccc2O1`, the relative growth is inactive: 0.985.

`CO[C@@H](CN(C)C(=O)C1CCOCC1)[C@@H](C)CN(C(=O)Nc1ccc(C(F)(F)F)cc1)[C@H](C)CO`: the relative growth was inactive: 0.854.

As to `C[C@@H]1CN([C@@H](C)CO)C(=O)c2cc(NC(=O)Nc3ccccc3)ccc2O[C@@H](C)CCCCO[C@@H]1CN(C)C(=O)NC1CCCCC1`, the relative growth is inactive: 1.02.

As to `COCC#Cc1cnc2c(c1)C(=O)N([C@H](C)CO)C[C@@H](C)[C@@H](CN(C)C(=O)c1ccc3c(c1)OCO3)O2`, the relative growth was inactive: 1.03.

As for `CN(C)CCCNC(=O)C[C@H]1CC[C@@H]2[C@H](COc3ccc(NC(=O)c4cccc(F)c4)cc3C(=O)N2C)O1`, the relative growth is inactive: 1.03.

Take `CCC[C@@H](N[C@H]1CCS(=O)(=O)C1)C(=O)O`: the relative growth was inactive: 1.

Regarding `CC(C)N(C)Cc1nnc2n1CCN(CCO)C2`, the relative growth is inactive: 0.886.

Turning to `CC(C)(C)[S@](=O)N1Cc2cc(C(=O)NC3CCC3)nc(-c3cccc(-c4ccccc4F)c3)c2[C@@H]1CCO`, the relative growth was inactive: 1.06.

For `c1n[nH]cc1-c1cn[nH]c1`, the relative growth is inactive: 0.997.

Take `C[C@H](CO)N1C[C@H](C)[C@H](CN(C)C(=O)Nc2cccc3ccccc23)OCCCC[C@H](C)Oc2ccc(NS(=O)(=O)c3cccs3)cc2C1=O`: the relative growth was inactive: 0.987.

Take `CCOC(=O)N1CCN(C[C@@H](O)Cn2c(=O)c3c(ncn3C)n(C)c2=O)CC1`: the relative growth is inactive: 1.01.

As for `C[C@H](CO)N1C[C@H](C)[C@H](CN(C)Cc2ccc(C(=O)Nc3ccccc3N)cc2)Oc2ccc(NC(=O)Nc3ccccc3)cc2C1=O`, the relative growth is inactive: 1.01.

In the case of `Cc1ccc(S(=O)(=O)N(C)C[C@@H]2Oc3c(NS(C)(=O)=O)cccc3C(=O)N([C@@H](C)CO)C[C@@H]2C)cc1`, the relative growth is inactive: 1.

For `COc1ccc2c3c(n(c2c1)C)[C@@H](CO)N(C[C@]13CCN(CC1)C(=O)CN1CCOCC1)C(=O)Nc1ccc(cc1)F`, the relative growth is inactive: 1.01.

Regarding `CC(C)NC(=O)N(C)C[C@H]1OCCCC[C@@H](C)Oc2ccc(NC(=O)Nc3ccc(C(F)(F)F)cc3)cc2C(=O)N([C@@H](C)CO)C[C@H]1C`, the relative growth is inactive: 0.995.

For the molecule `COc1ccc(S(=O)(=O)N(C)C[C@H]2Oc3c(NC(=O)c4ccncc4)cccc3C(=O)N([C@H](C)CO)C[C@@H]2C)cc1`, the relative growth was inactive: 1.01.

As for `N[C@@H](CSSC[C@H](N)C(=O)O)C(=O)O`, the relative growth is inactive: 1.02.

Regarding `COc1ccc(NC(=O)Nc2cccc3c2O[C@@H](CN(C)CC2CCCCC2)[C@@H](C)CN([C@H](C)CO)C3=O)cc1`, the relative growth was inactive: 0.832.

With `Cl.NCc1ccc(S(N)(=O)=O)cc1`, the relative growth is inactive: 0.983.

As for `CCCNC(=O)Nc1ccc2c(c1)C(=O)N(C)C[C@@H](OC)[C@H](C)CN(C(=O)C1CCOCC1)[C@H](C)CO2`, the relative growth is inactive: 0.952.

In the case of `C[C@@H]1CN([C@@H](C)CO)C(=O)c2cc(NC(=O)c3ccccc3)ccc2O[C@@H](C)CCCCO[C@H]1CN(C)Cc1ccncc1`, the relative growth is inactive: 0.995.

In the case of `CO[C@H]1CN(C)C(=O)c2cc(NS(=O)(=O)c3cn(C)cn3)ccc2OC[C@H](C)N(CCC(F)(F)F)C[C@@H]1C`, the relative growth is inactive: 1.

As to `COc1ccc(NC(=O)Nc2ccc3c(c2)C(=O)N([C@H](C)CO)C[C@H](C)[C@@H](CN(C)C(=O)C2CCCCC2)OCCCC[C@H](C)O3)cc1`, the relative growth was inactive: 0.988.

For the molecule `Cc1noc(C)c1S(=O)(=O)Nc1cccc2c1O[C@H](CN(C)S(=O)(=O)c1cccs1)[C@H](C)CN([C@H](C)CO)C2=O`, the relative growth is inactive: 0.983.

With `O=C(Nc1ccc(C(F)(F)F)cc1)Nc1cccc(Cl)c1`, the relative growth is inactive: 0.747.

As to `CCO[C@@H]1OC(C(=O)N2CCN(Cc3ccc4c(c3)OCO4)CC2)=C[C@H](c2csc3ccccc23)[C@H]1CCCOC(=O)NCCCCCC(=O)NO`, the relative growth is inactive: 1.02.

Turning to `COc1cccc(C#Cc2cnc3c(c2)C(=O)N([C@@H](C)CO)C[C@H](C)[C@H](CN(C)C(=O)C2CCC2)O3)c1`, the relative growth was inactive: 1.03.

As to `NC1(C(=O)O)CC1`, the relative growth is inactive: 0.988.

In the case of `CN1CCN(C(=O)C[C@@H]2C=C[C@@H](NC(=O)Nc3ccccc3F)[C@@H](CO)O2)CC1`, the relative growth was inactive: 0.996.

Turning to `CC1COc2c(N3CCN(C)CC3)c(F)cc3c(=O)c(C(=O)O)cn1c23` (centres undefined), the relative growth was active: 0.0447.

On to `C[C@H](CO)N1C[C@H](C)[C@@H](CN(C)Cc2ccncc2)Oc2ccc(NC(=O)CCN3CCOCC3)cc2CC1=O`, for which the relative growth is inactive: 0.982.

For the molecule `C[C@@H]1CN([C@H](C)CO)S(=O)(=O)c2ccc(C#CC3CC3)cc2O[C@H]1CN(C)Cc1ccc(F)cc1`, the relative growth was inactive: 1.03.

As for `COC(=O)CCc1ccc(OC)cc1O`, the relative growth was inactive: 0.959.

For `O=C(C[C@@H]1C[C@H]2c3cc(NS(=O)(=O)c4ccc(F)cc4)ccc3O[C@H]2[C@H](CO)O1)NCc1ccccc1`, the relative growth was inactive: 1.

Regarding `COC(=O)c1ccc(=O)oc1`, the relative growth is inactive: 0.993.

Regarding `C[C@H]1CCCCO[C@@H](CN(C)C(=O)C2CCCCC2)[C@@H](C)CN([C@@H](C)CO)C(=O)c2cc(NC(=O)Nc3ccccc3)ccc2O1`, the relative growth is inactive: 1.01.

For the molecule `Cc1noc(C)c1S(=O)(=O)Nc1ccc2c(c1)C(=O)N([C@@H](C)CO)C[C@@H](C)[C@@H](CN(C)Cc1ccccc1)OCCCC[C@@H](C)O2`, the relative growth was inactive: 1.02.

With `COc1ccc(NC(=O)Nc2ccc3c(c2)C(=O)N([C@H](C)CO)C[C@@H](C)[C@H](CN(C)C(=O)C2CCCCC2)OCCCC[C@@H](C)O3)cc1`, the relative growth is inactive: 0.943.
